The text below walks through data of a collection of fitness landscapes (doi:10.1126/science.1257360).

This is one part of the list.

To fix the notation:
B1: PhoQ; a variant is named by its letters at X, in order, P23837 (parent)
chain: MKKLLRLFFPLSLRVRFLLATAAVVLVLSLAYGMVALIGYSVSFDKTTFRLLRGESNLFYTLAKWENNKLHVELPENIDKQSPTMTLIYDENGQLLWAQRDVPWLMKMIQPDWLKSNGFHEIEADVNDTSLLLSGDHSIQQQLQEVREDDDDAEMTHSVAVNVYPATSRMPKLTIVVVDTIPVELKSSYMVWSWFIYVLSANLLLVIPLLWVAAWWSLRPIEALAKEVRELEEHNRELLNPATTRELTSLVRNLNRLLKSERERYDKYRTTLTDLTHSLKTPLXXLQXXLRSLRSEKMSVSDAEPVMLEQISRISQQIGYYLHRASMRGGTLLSRELHPVAPLLDNLTSALNKVYQRKGVNISLDISPEISFVGEQNDFVEVMGNVLDNACKYCLEFVEISARQTDEHLYIVVEDDGPGIPLSKREVIFDRGQRVDTLRPGQGVGLAVAREITEQYEGKIVAGESMLGGARMEVIFGRQHSAPKDE

In this assay the parent is B1. Nature of the assay: enrichment ratio after two sorts for PhoP signalling (ratio (wild type AVST 3.29)); higher = more functional. The conditions noted are these: with PhoP (E. coli).
Regarding GMHI, the enrichment ratio is ≤ 0.25.

As to MWIQ, the enrichment ratio was ≤ 0.25.

In the case of HTMM, the enrichment ratio turned out to be 3.76.

Consider HAPM, for which the enrichment ratio was ≤ 0.25.

In the case of YCYW, the enrichment ratio was ≤ 0.25.

For RDRQ, the enrichment ratio is ≤ 0.25.

Take SLTI: the enrichment ratio was 10.1.

Regarding TPGT, the enrichment ratio was ≤ 0.25.

Turning to WECK, the enrichment ratio is ≤ 0.25.

As to LKNA, the enrichment ratio was ≤ 0.25.

As to MMFQ, the enrichment ratio is ≤ 0.25.

For RSQI, the enrichment ratio was ≤ 0.25.

With YMQK, the enrichment ratio is ≤ 0.25.

With ARCT, the enrichment ratio worked out at 2.13.

Consider GFHW, for which the enrichment ratio was ≤ 0.25.

In the case of VRIQ, the enrichment ratio was ≤ 0.25.

Take HLSM: the enrichment ratio is ≤ 0.25.

As for FFWK, the enrichment ratio was ≤ 0.25.

As to MMYV, the enrichment ratio was ≤ 0.25.

For GGVM, the enrichment ratio turned out to be 4.61.

Take WTNI: the enrichment ratio was ≤ 0.25.

With DSRD, the enrichment ratio is ≤ 0.25.

Turning to DKGY, the enrichment ratio is ≤ 0.25.

MFEH: the enrichment ratio was ≤ 0.25.

With NWSY, the enrichment ratio was ≤ 0.25.

With KMFM, the enrichment ratio was ≤ 0.25.

VHSD: the enrichment ratio is ≤ 0.25.

As to APAW, the enrichment ratio is ≤ 0.25.

Take KHTY: the enrichment ratio is ≤ 0.25.

GHKQ: the enrichment ratio is ≤ 0.25.

With YWCM, the enrichment ratio is ≤ 0.25.

Consider VQGL, for which the enrichment ratio was ≤ 0.25.

Turning to EGHN, the enrichment ratio was ≤ 0.25.

For NDFI, the enrichment ratio was ≤ 0.25.

Take YHWE: the enrichment ratio is ≤ 0.25.

In the case of TCEE, the enrichment ratio is ≤ 0.25.

For the variant PDIF, the enrichment ratio is ≤ 0.25.

As to WQWD, the enrichment ratio is ≤ 0.25.

With FWPF, the enrichment ratio was ≤ 0.25.

With HHNS, the enrichment ratio is ≤ 0.25.

Consider APIC, for which the enrichment ratio is ≤ 0.25.

As for NQSP, the enrichment ratio is ≤ 0.25.

As for GSFH, the enrichment ratio was ≤ 0.25.

With EYTL, the enrichment ratio is ≤ 0.25.

On to FYMY, for which the enrichment ratio is ≤ 0.25.

With NSNP, the enrichment ratio is ≤ 0.25.

For DSTE, the enrichment ratio was ≤ 0.25.

As for HMVQ, the enrichment ratio was ≤ 0.25.

With AQCT, the enrichment ratio was found to be 20.8.

On to SAPA, for which the enrichment ratio was ≤ 0.25.

Regarding STAL, the enrichment ratio was 11.5.

For ACLE, the enrichment ratio came to 1.64.

As for HGHI, the enrichment ratio was ≤ 0.25.

As for PGQM, the enrichment ratio was ≤ 0.25.

For the variant VAWW, the enrichment ratio was ≤ 0.25.

For AQAW, the enrichment ratio is ≤ 0.25.

For LRDQ, the enrichment ratio was ≤ 0.25.

Consider VAFT, for which the enrichment ratio is ≤ 0.25.

On to HQHG, for which the enrichment ratio was ≤ 0.25.

Regarding GMEH, the enrichment ratio was ≤ 0.25.

Take PAPS: the enrichment ratio is ≤ 0.25.

With WSHR, the enrichment ratio was ≤ 0.25.

Take EGVM: the enrichment ratio is ≤ 0.25.

Regarding TPTA, the enrichment ratio is ≤ 0.25.

On to RRIK, for which the enrichment ratio is ≤ 0.25.

Consider ACTT, for which the enrichment ratio was 3.93.

As for EVGA, the enrichment ratio was ≤ 0.25.

For the variant LMLF, the enrichment ratio was ≤ 0.25.

As to LRCN, the enrichment ratio is ≤ 0.25.

VCAT: the enrichment ratio was ≤ 0.25.

Regarding NPPM, the enrichment ratio is ≤ 0.25.

With NNER, the enrichment ratio is ≤ 0.25.

For TYWW, the enrichment ratio was ≤ 0.25.

Regarding HDTS, the enrichment ratio is ≤ 0.25.

As for FNGG, the enrichment ratio was ≤ 0.25.

In the case of WIAK, the enrichment ratio is ≤ 0.25.

VHDC: the enrichment ratio was ≤ 0.25.

DTQK: the enrichment ratio was ≤ 0.25.

As to IWVQ, the enrichment ratio is ≤ 0.25.

As for ADHR, the enrichment ratio is ≤ 0.25.

With ADYN, the enrichment ratio is ≤ 0.25.

Turning to WCWV, the enrichment ratio is ≤ 0.25.

Regarding LYEY, the enrichment ratio was ≤ 0.25.

Turning to RFPY, the enrichment ratio was ≤ 0.25.

For ITWV, the enrichment ratio is ≤ 0.25.

With FHPP, the enrichment ratio was ≤ 0.25.

Take NMYW: the enrichment ratio is ≤ 0.25.

Consider MAIK, for which the enrichment ratio was ≤ 0.25.

For the variant ENQN, the enrichment ratio is ≤ 0.25.

For WQNG, the enrichment ratio was ≤ 0.25.

With IRMW, the enrichment ratio was ≤ 0.25.

In the case of RWAT, the enrichment ratio is ≤ 0.25.

For CFAN, the enrichment ratio is ≤ 0.25.

As for MNQI, the enrichment ratio was ≤ 0.25.

For the variant FPMG, the enrichment ratio was ≤ 0.25.

In the case of HKVN, the enrichment ratio is ≤ 0.25.

In the case of NRWH, the enrichment ratio was ≤ 0.25.

MNFD: the enrichment ratio was ≤ 0.25.

With PHVD, the enrichment ratio was ≤ 0.25.

Turning to AQDW, the enrichment ratio was ≤ 0.25.

As for FFNE, the enrichment ratio is ≤ 0.25.

As for PECD, the enrichment ratio is ≤ 0.25.

In the case of ETDH, the enrichment ratio was ≤ 0.25.

As for TSRC, the enrichment ratio is ≤ 0.25.

For RKPS, the enrichment ratio was ≤ 0.25.

On to DAYT, for which the enrichment ratio is ≤ 0.25.

Consider PNYD, for which the enrichment ratio was ≤ 0.25.

Turning to DIPV, the enrichment ratio was ≤ 0.25.

Consider VLYC, for which the enrichment ratio was ≤ 0.25.

On to MSTT, for which the enrichment ratio is 0.617.

Take DMFC: the enrichment ratio is ≤ 0.25.

Turning to NKYQ, the enrichment ratio is ≤ 0.25.

EDFN: the enrichment ratio is ≤ 0.25.

Consider IMTR, for which the enrichment ratio is ≤ 0.25.

Consider PECI, for which the enrichment ratio is ≤ 0.25.

Regarding PLQI, the enrichment ratio was ≤ 0.25.

With FAGD, the enrichment ratio was ≤ 0.25.

Regarding DCVP, the enrichment ratio was ≤ 0.25.

GANL: the enrichment ratio is ≤ 0.25.

With WKIF, the enrichment ratio is ≤ 0.25.

VNSY: the enrichment ratio is ≤ 0.25.

Turning to RIIH, the enrichment ratio is ≤ 0.25.

For the variant AKQY, the enrichment ratio is ≤ 0.25.

Consider VVPV, for which the enrichment ratio is ≤ 0.25.

Take QIHC: the enrichment ratio is ≤ 0.25.

For NPGH, the enrichment ratio was ≤ 0.25.

In the case of ELNF, the enrichment ratio was ≤ 0.25.

For the variant QVAV, the enrichment ratio is ≤ 0.25.

In the case of KSEG, the enrichment ratio is ≤ 0.25.

For LKRC, the enrichment ratio was ≤ 0.25.

Take KRWG: the enrichment ratio was ≤ 0.25.

GGCC: the enrichment ratio is 1.09.

With DKCN, the enrichment ratio is ≤ 0.25.

Take DAQK: the enrichment ratio was ≤ 0.25.

Take HNYQ: the enrichment ratio was ≤ 0.25.

For the variant RGTQ, the enrichment ratio is ≤ 0.25.

As for GLGF, the enrichment ratio is ≤ 0.25.

Take WYLC: the enrichment ratio was ≤ 0.25.

For the variant QFIK, the enrichment ratio is ≤ 0.25.

Consider VQLN, for which the enrichment ratio was ≤ 0.25.

For the variant KVCP, the enrichment ratio is ≤ 0.25.

ACPF: the enrichment ratio was ≤ 0.25.

As to TTRH, the enrichment ratio was ≤ 0.25.

In the case of YPLH, the enrichment ratio is ≤ 0.25.

As for GHVT, the enrichment ratio was ≤ 0.25.

As to PPFM, the enrichment ratio was ≤ 0.25.

Take STYG: the enrichment ratio is ≤ 0.25.

Take DASS: the enrichment ratio is ≤ 0.25.

In the case of GWCF, the enrichment ratio was ≤ 0.25.

For AQHL, the enrichment ratio was ≤ 0.25.

For the variant QWYK, the enrichment ratio is ≤ 0.25.

Turning to FWSE, the enrichment ratio was ≤ 0.25.

Turning to MRML, the enrichment ratio is ≤ 0.25.
